Source: the supplement of paper PMC12217912
The list shows a part of the results. Sequences were assembled here from the parent chain. Values near 0.05 are background.

B1: TEV protease; numbered along this chain (parent)
chain: MGESLFKGPRDYNPISSSICHLTNESDGHTTSLYGIGFGPFIITNKHLFRRNNGTLVVQSLHGVFKVKDTTTLQQHLVDGRDMIIIRMPKDFPPFPQKLKFREPQREERICLVTTNFQTKSMSSMVSDTSCTFPSGDGIFWKHWIQTKDGQCGSPLVSTRDGFIVGIHSASNFTNTNNYFTSVPKNFMELLTNQEAQQWVSGWRLNADSVLWGGHKVFMVKPEEPFQPVKEATQL

Variants of: B1
Assay: raw area under fraction-flipped curve 0-4 h after induction (AUC4h, not background-subtracted), DNA-recorder readout of cleavage of the substrate (dimensionless); higher = more cleavage of the substrate by the protease variant
Conditions: temperature: 34 °C; time window: 0-4 h after rhamnose induction
Description: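 In vivo DNA recorder in E. coli TOP10(DE3) ΔrhaA at 34 °C. Each TEVp single-site mutant (parent TEVp 0) is paired with a single-site variant of the 7-mer TEVs (canonical ENLYFQ|S). The substrate sits between flexible linkers in a Bxb1-sfGFP-TEVs-SsrA fusion, so cleavage stabilises Bxb1 and speeds flipping of a recombination array, read by NGS. The value is the raw area under the fraction-flipped curve over 0-4 h after rhamnose induction (AUC4h), with ≥20 reads per time point. It is not background-subtracted; inactive controls average about 0.047.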
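Further: Bxb1 expression induced with 0.2% (w/v) L-rhamnose at OD600 near 0.5, cultures sampled hourly, flipped fraction per protease–substrate barcode pair counted by paired-end Illumina sequencing.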

| Variant | area with substrate EALYFQS | area with substrate ECLYFQS | area with substrate EDLYFQS | area with substrate EELYFQS | area with substrate EFLYFQS | area with substrate EGLYFQS | area with substrate EHLYFQS | area with substrate EILYFQS | area with substrate EKLYFQS | area with substrate ELLYFQS | area with substrate EMLYFQS | area with substrate EPLYFQS | area with substrate EQLYFQS | area with substrate ERLYFQS | area with substrate ESLYFQS | area with substrate ETLYFQS | area with substrate EVLYFQS | area with substrate EWLYFQS | area with substrate EYLYFQS |
| --- | --- | --- | --- | --- | --- | --- | --- | --- | --- | --- | --- | --- | --- | --- | --- | --- | --- | --- | --- |
| Q75H | 0.0805 | 0.0707 | 0.0765 | 0.0809 | 0.0777 | 0.0677 | 0.0759 | 0.0587 | 0.0705 | 0.0652 | 0.0829 | 0.115 | 0.0699 | 0.0642 | 0.0755 | 0.0689 | 0.0658 | 0.0576 | 0.058 |
| Q75T | 0.0988 | 0.0844 |  | 0.105 | 0.139 |  |  | 0.0774 | 0.0761 | 0.104 | 0.0453 |  | 0.126 |  | 0.0898 |  | 0.0874 |  | 0.0825 |
| H76P | 0.0577 | 0.0573 |  | 0.0617 | 0.003 |  |  | 0.0507 | 0.054 | 0.0474 | 0.0517 | 0.0766 | 0.0541 |  | 0.0641 | 0.0562 |  | 0.0365 | 0.0533 |
| V78K | 0.0503 | 0.0514 | 0.0743 |  |  |  | 0.0745 | 0.0554 | 0.0621 |  | 0.0495 | 0.058 | 0.0599 | 0.0422 | 0.0601 | 0.0628 | 0.0558 | 0.0735 |  |
| V78M | 0.111 | 0.106 | 0.157 |  |  | 0.0883 | 0.0805 |  | 0.0816 | 0.0709 | 0.122 |  | 0.135 | 0.106 | 0.11 |  | 0.0854 | 0.0782 |  |
| V78T | 0.155 | 0.0792 | 0.113 |  | 0.123 | 0.0895 | 0.0861 | 0.0859 | 0.097 | 0.0525 | 0.0796 | 0.0946 | 0.111 | 0.089 | 0.0858 |  |  |  |  |
| G80Y | 0.149 | 0.0987 | 0.174 |  | 0.0833 |  |  | 0.0898 | 0.122 | 0.111 | 0.0935 | 0.126 | 0.117 | 0.115 | 0.116 | 0.11 |  |  |  |
| D82E | 0.0815 | 0.0653 | 0.0992 | 0.0039 | 0.085 | 0.0678 |  | 0.0519 | 0.0765 | 0.0575 | 0.0665 |  | 0.0712 |  | 0.0693 |  | 0.0646 |  | 0.0647 |
| M83A | 0.0849 | 0.0833 | 0.0932 |  |  | 0.0683 | 0.0956 | 0.0772 |  |  | 0.0891 | 0.086 | 0.0945 | 0.0766 | 0.0801 | 0.063 | 0.0814 | 0.0801 |  |
| M83P | 0.0637 | 0.0582 |  | 0.06 |  |  |  |  | 0.0563 | 0.0496 | 0.0633 | 0.0584 | 0.0495 |  | 0.0538 |  | 0.0526 | 0.0541 |  |
| M83Q | 0.0794 | 0.0554 | 0.0659 | 0.04 | 0.068 |  |  |  |  |  | 0.0713 | 0.0697 | 0.0772 | 0.0695 | 0.0648 | 0.0627 | 0.0732 |  | 0.0583 |
| M83S | 0.0709 |  | 0.0623 | 0.0714 | 0.0617 | 0.048 | 0.0719 |  | 0.0583 |  | 0.0357 | 0.0715 | 0.0805 | 0.0764 |  |  | 0.0593 |  |  |
| I85G | 0.0583 | 0.0612 | 0.0471 | 0.057 |  | 0.0458 | 0.0524 | 0.06 | 0.0485 | 0.0508 | 0.0478 | 0.0544 |  |  | 0.058 |  |  |  | 0.0574 |
| I86Y | 0.0468 | 0.0851 |  | 0.0533 |  | 0.05 |  |  | 0.0624 |  | 0.0518 |  | 0.0651 |  | 0.0613 | 0.0824 | 0.0385 |  | 0.0635 |
| R87P | 0.0608 | 0.0496 |  |  |  |  |  | 0.0565 |  | 0.0582 | 0.0546 |  |  | 0.0587 | 0.0624 |  |  |  |  |
| M88S | 0.127 |  |  |  |  | 0.0822 | 0.0449 | 0.0722 | 0.0916 | 0.0455 |  |  |  | 0.0872 | 0.0655 |  |  |  | 0.0995 |
| K90C | 0.127 | 0.121 |  | 0.114 |  | 0.103 | 0.0814 | 0.0873 |  | 0.107 |  | 0.102 |  | 0.0989 | 0.112 |  | 0.0799 | 0.0877 |  |
| K90Q | 0.12 | 0.102 | 0.117 | 0.142 | 0.108 |  |  | 0.0814 | 0.119 |  |  |  | 0.13 | 0.0966 | 0.108 |  |  | 0.0718 |  |
| D91V | 0.112 | 0.0932 | 0.081 |  | 0.0914 |  | 0.107 | 0.0901 |  |  |  | 0.0858 |  | 0.0872 | 0.105 |  | 0.0798 | 0.067 |  |
| F92P | 0.0518 | 0.068 | 0.0612 | 0.0699 | 0.0596 | 0.0531 |  | 0.0554 | 0.071 |  | 0.0547 | 0.0585 | 0.0641 | 0.0587 | 0.0667 | 0.0572 | 0.0527 | 0.0603 |  |
| P93H | 0.115 | 0.0984 |  | 0.11 |  |  | 0.0934 |  | 0.101 |  | 0.099 |  | 0.109 | 0.11 | 0.0855 |  |  |  |  |
| P93R | 0.108 | 0.11 | 0.104 |  |  |  |  | 0.0831 |  |  |  |  |  | 0.0958 |  |  |  |  |  |
| P94M | 0.141 |  | 0.148 | 0.126 |  | 0.111 |  |  |  |  |  | 0.153 | 0.115 | 0.0301 | 0.112 | 0.101 | 0.0856 |  |  |
| P96G | 0.124 | 0.0883 | 0.153 |  |  |  | 0.106 | 0.0988 | 0.131 | 0.0847 | 0.126 |  |  |  | 0.0858 |  |  |  |  |
| K98Y | 0.113 | 0.097 |  |  |  | 0.111 | 0.112 | 0.108 |  | 0.109 | 0.109 | 0.129 | 0.133 | 0.0988 | 0.109 | 0.123 | 0.103 | 0.112 | 0.142 |
| F101T | 0.055 | 0.0549 | 0.0454 | 0.0593 | 0.0794 |  | 0.0556 | 0.059 |  | 0.0656 |  |  |  | 0.0628 | 0.0598 |  | 0.0547 | 0.0674 |  |
| R102K | 0.134 | 0.102 | 0.145 |  | 0.0978 | 0.0974 | 0.105 | 0.0995 |  | 0.102 | 0.0956 | 0.158 |  | 0.119 | 0.104 | 0.122 | 0.0991 | 0.104 | 0.11 |
| P104Q | 0.0599 | 0.0562 |  |  | 0.0224 |  |  |  | 0.0417 | 0.0496 |  |  | 0.0704 |  | 0.052 |  | 0.045 |  | 0.0372 |
| Q105H | 0.108 | 0.14 |  | 0.111 |  | 0.062 | 0.0864 | 0.118 | 0.118 | 0.0849 | 0.0911 | 0.104 |  | 0.105 | 0.0959 | 0.132 | 0.0957 |  |  |
